These results are taken from article PMC6136799, “The Npa1p complex chaperones the assembly of the earliest eukaryotic large ribosomal subunit precursor” (PLoS Genetics, 2018).

Test in all cases: co-IP; purified GST-tagged versions of the complex proteins tested in pairs by immunoprecipitation with specific antibodies; conditions not given; both purified
Assay [1] concerns the target T1, GST-Npa1p (S. cerevisiae), P34241.
T1 chain: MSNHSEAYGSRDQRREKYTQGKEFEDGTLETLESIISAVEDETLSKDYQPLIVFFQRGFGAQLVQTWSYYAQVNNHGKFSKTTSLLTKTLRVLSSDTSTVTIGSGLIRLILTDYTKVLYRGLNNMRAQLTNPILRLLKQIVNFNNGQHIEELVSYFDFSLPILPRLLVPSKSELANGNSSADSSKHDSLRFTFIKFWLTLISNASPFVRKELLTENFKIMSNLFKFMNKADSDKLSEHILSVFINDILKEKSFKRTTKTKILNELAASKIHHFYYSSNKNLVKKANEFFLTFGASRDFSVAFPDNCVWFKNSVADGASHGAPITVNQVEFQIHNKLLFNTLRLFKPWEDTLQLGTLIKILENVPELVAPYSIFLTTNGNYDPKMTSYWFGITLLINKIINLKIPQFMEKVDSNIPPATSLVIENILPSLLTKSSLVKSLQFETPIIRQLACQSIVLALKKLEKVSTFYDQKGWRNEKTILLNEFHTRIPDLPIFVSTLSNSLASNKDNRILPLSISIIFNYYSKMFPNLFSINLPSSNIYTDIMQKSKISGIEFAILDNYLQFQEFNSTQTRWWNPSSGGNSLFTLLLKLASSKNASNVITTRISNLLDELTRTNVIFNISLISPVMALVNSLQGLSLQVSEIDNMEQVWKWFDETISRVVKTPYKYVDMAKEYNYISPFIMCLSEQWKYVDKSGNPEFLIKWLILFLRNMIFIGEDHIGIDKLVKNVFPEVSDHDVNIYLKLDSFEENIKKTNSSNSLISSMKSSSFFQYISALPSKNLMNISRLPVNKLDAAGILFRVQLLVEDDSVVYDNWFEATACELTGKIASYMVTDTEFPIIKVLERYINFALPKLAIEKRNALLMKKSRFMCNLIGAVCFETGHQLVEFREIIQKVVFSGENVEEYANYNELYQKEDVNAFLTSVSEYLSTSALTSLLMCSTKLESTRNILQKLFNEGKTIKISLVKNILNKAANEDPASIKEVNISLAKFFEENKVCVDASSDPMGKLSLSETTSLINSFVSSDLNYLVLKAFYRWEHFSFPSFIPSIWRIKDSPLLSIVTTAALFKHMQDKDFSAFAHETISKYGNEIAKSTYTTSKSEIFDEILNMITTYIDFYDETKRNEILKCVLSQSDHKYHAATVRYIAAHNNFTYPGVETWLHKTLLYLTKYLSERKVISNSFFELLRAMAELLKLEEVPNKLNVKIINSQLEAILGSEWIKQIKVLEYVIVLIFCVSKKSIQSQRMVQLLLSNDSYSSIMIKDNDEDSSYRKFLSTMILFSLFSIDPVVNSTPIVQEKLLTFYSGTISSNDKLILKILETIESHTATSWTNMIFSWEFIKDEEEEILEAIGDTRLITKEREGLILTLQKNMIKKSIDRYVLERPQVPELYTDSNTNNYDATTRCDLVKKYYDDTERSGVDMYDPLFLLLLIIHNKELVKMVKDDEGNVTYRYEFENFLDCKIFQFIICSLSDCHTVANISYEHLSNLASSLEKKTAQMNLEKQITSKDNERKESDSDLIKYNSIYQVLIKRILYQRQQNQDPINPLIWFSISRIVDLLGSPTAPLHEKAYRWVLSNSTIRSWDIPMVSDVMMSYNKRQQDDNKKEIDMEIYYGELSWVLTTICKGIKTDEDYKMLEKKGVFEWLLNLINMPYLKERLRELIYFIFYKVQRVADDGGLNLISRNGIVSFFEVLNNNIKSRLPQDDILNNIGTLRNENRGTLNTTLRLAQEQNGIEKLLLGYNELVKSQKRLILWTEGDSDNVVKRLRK
The settings on record: remark: other sources report otherwise.

A further assay concerns the target T2, GST-Npa2p (S. cerevisiae, UniProt P47108 1-1174).
T2 construct: Npa2p, S. cerevisiae; NPA2 ORF inserted into XhoI-digested pGEX-6P1 (plasmid pRC58); source: E. coli Rosetta λDE3, purified (Glutathione Sepharose 4 FF)
T2 sequence (looked up): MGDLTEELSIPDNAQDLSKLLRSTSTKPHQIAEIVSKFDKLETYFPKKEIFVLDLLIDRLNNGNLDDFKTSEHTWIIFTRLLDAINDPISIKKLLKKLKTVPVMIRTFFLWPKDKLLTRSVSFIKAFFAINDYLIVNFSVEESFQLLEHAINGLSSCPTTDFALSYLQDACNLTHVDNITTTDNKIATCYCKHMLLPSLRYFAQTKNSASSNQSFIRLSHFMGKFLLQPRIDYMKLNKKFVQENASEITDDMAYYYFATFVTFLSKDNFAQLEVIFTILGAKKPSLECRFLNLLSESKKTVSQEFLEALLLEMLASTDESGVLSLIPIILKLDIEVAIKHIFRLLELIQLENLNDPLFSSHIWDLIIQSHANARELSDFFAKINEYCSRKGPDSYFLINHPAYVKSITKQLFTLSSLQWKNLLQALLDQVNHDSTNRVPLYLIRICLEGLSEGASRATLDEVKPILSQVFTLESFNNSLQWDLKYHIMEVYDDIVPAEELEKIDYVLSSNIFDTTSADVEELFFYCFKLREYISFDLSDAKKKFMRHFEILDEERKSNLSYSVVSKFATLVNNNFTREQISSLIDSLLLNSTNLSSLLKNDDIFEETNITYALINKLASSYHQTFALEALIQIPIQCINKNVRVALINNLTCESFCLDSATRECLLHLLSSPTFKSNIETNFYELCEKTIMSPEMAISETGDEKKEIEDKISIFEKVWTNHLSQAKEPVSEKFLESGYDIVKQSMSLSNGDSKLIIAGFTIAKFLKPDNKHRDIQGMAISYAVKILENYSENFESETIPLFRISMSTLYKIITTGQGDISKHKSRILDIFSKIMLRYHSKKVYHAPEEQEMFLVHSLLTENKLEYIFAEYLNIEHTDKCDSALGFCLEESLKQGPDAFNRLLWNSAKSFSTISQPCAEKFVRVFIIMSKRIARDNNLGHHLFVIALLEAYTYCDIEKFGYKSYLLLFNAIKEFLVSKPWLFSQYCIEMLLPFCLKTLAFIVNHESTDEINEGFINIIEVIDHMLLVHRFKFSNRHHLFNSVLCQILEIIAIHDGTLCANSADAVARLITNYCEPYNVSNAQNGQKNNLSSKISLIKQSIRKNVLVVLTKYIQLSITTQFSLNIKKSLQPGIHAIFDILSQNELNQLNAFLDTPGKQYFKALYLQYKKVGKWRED

In assay [2] the target is T3, GST-Nop8p (S. cerevisiae) (UniProt Q08287).
T3 sequence: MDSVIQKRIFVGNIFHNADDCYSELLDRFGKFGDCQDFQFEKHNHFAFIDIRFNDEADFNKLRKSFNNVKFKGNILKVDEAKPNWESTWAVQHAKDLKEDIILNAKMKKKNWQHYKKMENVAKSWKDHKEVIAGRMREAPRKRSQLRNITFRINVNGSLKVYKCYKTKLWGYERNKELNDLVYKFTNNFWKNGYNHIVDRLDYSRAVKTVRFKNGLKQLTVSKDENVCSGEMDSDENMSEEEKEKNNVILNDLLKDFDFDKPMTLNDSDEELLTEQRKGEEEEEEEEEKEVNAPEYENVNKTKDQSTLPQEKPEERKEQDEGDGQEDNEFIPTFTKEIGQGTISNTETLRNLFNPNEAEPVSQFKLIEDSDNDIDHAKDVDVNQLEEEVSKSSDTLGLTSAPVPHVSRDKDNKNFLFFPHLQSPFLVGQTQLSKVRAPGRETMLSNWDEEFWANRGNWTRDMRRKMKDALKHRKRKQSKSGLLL

No constants are given. Whether binding was seen depends on the method and setting. Tags and fused reporters may be left off the sequences shown.

B1: GST-Npa2p, P47108 1-1174 (protein)
chain: T2 sequence (looked up)
Consider B1, for which, in assay [1], the binding entry is listed as “no binding”.

B2: GST-Rsa3p (protein, UniProt Q05942 1-220)
chain: MSAGDISAINIKSVKKNRRRKKRRTADVSSSDSSSSDPSSESEKEEIQNGAIEEHVGENGKSDHVFSKGNDEDKQEDIAIEVSDVELTDEESKDLKLNSKEVIDDLTKISLSKIPEPTKSQNKEGFMNASKIAENIKLAREEYNELAENFVPKGKDKTKLREEYLNLLFENYGDDINRLRAAPDFTNKSLSILADALQEGIGMFDIGELELVLKNKEMEN
For the molecule B2, the binding result (with GST-Npa2p; in assay [2]) was “no binding” in each case.
